# Experimental data taken from the RNAGym collection of RNA variant scans (doi:10.1073/pnas.2313332121).
# This sample is rich in variants without activity.
# B1: TPR 5TU (parent)
# chain: GGAUCUUCUCGAUCUAACAAAAAAGACAAAUCUGCCACAAAGCUUGAGAGCAUCUUCGGAUGCAGAGGCGGCAGCCUUCGGUGGCGCGAUAGCGCCAACGUUCUCAACUAUGACACGCAAAACGCGUGCUCCGUUGAAUGGAGUUUAUCAUG
# Variants of: B1
# Test: polymerase ribozyme fitness, log enrichment relative to wild type (log ratio); higher = more active; in vitro selection for triplet polymerase activity
# Method in brief: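 Fitness compares each genotype's enrichment to that of the wild type on a logarithmic scale, averaging replicates with inverse-variance weights. The logarithm is base 2. Enrichment came from Illumina sequencing of input and output libraries after one triplicate round of in vitro selection, which included frozen incubation at −7 °C, of PCR-built, transcribed mutant libraries of each subunit of a heterodimeric triplet polymerase ribozyme. Only genotypes with ≥10 input reads and ≥1 read per output were kept.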
row,Variant,polymerase ribozyme fitness (log ratio)
1,C51G G74A C79G G86U C87U,≤ -4.2
2,A52C G67A C85U G88C C116G A137U,≤ -4.2
3,G50C A52G C57U C93A,≤ -4.2
4,G50U C57U C76A C103G A147C,≤ -4.2
5,C51G C85G U90A C108A A113G G133U A150U,≤ -4.2
6,G50U G126A G141C,-4.02
7,G50C C72A U78C G88C A91U G92A C125U G141A G143U,≤ -4.2
8,C51U C85G A107C,≤ -4.2
9,G50C A52G C76G G83A C87G G100U U145A,≤ -4.2
10,G50U G94A A113G A147C,-3.89
11,C51A U55A G68C C99G G140A,≤ -4.2
12,A52C C93G,-3.65
13,G50U C54G A150U,-2.15
14,C51G A73U C93G C131A,≤ -4.2
15,G50C A66C C93U U139G U148C,≤ -4.2
16,C51U U151G,≤ -4.2
17,G50A G92A,≤ -4.2
18,A52U A60G C87A G128U C131G,≤ -4.2
19,C51U G141C,-0.423
20,A52G G92C C96A U148A U151G,≤ -4.2
21,C51A U55A C87A,≤ -4.2

row,Variant,polymerase ribozyme fitness (log ratio)
1,G50C U104C C116A G143U,≤ -4.2
2,A52G A64C C69U A138G,≤ -4.2
3,A52C C105U A115G G140C A142C A150C,≤ -4.2
4,G50C C93U U104G G136U G141A,≤ -4.2
5,A52C C57G C76G G84U C85A C118A C149U,≤ -4.2
6,A52G G84A C118U C123G,-1.29
7,A52G C79G G83U U102C,≤ -4.2
8,A52C G92U C103G A106C,≤ -4.2
9,G50U C87G G112A,≤ -4.2
10,A52C U56A C72U A73G U77G U78G C87A A89U,≤ -4.2
11,C51U G62A U139G,-0.262
12,G50A G86C C125G G126A,≤ -4.2
13,A52C G67C G83U C108U G124U,≤ -4.2
14,C51A G74A C95U U102G C108G U111G,≤ -4.2
15,C51A C87A G141U A150G,≤ -4.2
16,A52G A137C,-3.28
17,A52G C114A,-3.48
18,C51U C85G C96G A119C,≤ -4.2
19,C51U G92C U135C,-3.1
20,C51U C54U C85A A98U,-2.81
21,A52C C85U A147G,-3.76

row,Variant,polymerase ribozyme fitness (log ratio)
1,A52C U53A U55G G83U C105U U151G,≤ -4.2
2,A52G U55G A115C C129G G140U,≤ -4.2
3,C51A G58A G74A C95U U109A G136A,≤ -4.2
4,A52C U53A U55G U56C A60G G88A G92A U104G C108A A115U,≤ -4.2
5,G50U C75G C87A,≤ -4.2
6,A52G G80U G92C C132U,≤ -4.2
7,G50U U55A C96U,-0.864
8,C51U G88C A137C,≤ -4.2
9,C51U U134A,-2.32
10,G50A G84A,-2.43
11,C51A C85G U151C,≤ -4.2
12,G50U G92A G136U,≤ -4.2
13,C51A G58C,-2.22
14,A52G G92C C96A U104C C118U A120G U134G,≤ -4.2
15,G50C U82A G136C,≤ -4.2
16,A52G A106G,-0.771
17,C51U U90G C95G G126C A142G U148A,≤ -4.2
18,G50C G86C C95A C105A C125G,≤ -4.2
19,A52G G84A,-1.03
20,G50C G86U A119C,≤ -4.2
21,A52G U109G A122U,-1.46

row,Variant,polymerase ribozyme fitness (log ratio)
1,C51G G74U C79A G100C G124C,≤ -4.2
2,C51G G86U A142C G143C,≤ -4.2
3,C51U U90C A91U A110G U148G,≤ -4.2
4,C51U A52C U82G U135G,-3.54
5,G50A G94C C95G U144C,≤ -4.2
6,A52G C54A U148G,≤ -4.2
7,G50C C63G G94C C103A C132U,-4.08
8,C51G C57A G88C,≤ -4.2
9,A52C C85G C87U G133A G143C,-4.07
10,A52C G59A G68A C79U G92U U104G,≤ -4.2
11,A52G U53A G84A G100C A115C A147G,≤ -4.2
12,A52C C85A U90C G133C U145C,≤ -4.2
13,A52G U82A,-0.467
14,G50A U82C,-0.783
15,A52G G88U C95A G140U,≤ -4.2
16,G50U C57U G92C,-0.983
17,A52G C69G C93U,≤ -4.2
18,C51U G94U A98C A120G U139A G140U,≤ -4.2
19,C51U G86U C108U,≤ -4.2
20,A52G A60G G81U A89C C95G U102C G136U A137U,≤ -4.2
